Measured values: the antibiotic and cytotoxicity screens of Wong et al. (2023)
The list shows a part of the results.

The compounds below were run on HSkMC (human skeletal muscle cells) (assay: cytotoxicity call (relative viability < 0.9)). Conditions: 10 µM.
`COc1cc(Nc2ncc(F)c(Nc3ccc4c(n3)N(COP(=O)(O)O)C(=O)C(C)(C)O4)n2)cc(OC)c1OC` was tested, and the cytotoxicity call was “active”. For `C[C@@H]1CN([C@H](C)CO)C(=O)Cc2cc(NS(=O)(=O)c3cn(C)cn3)ccc2O[C@H]1CN(C)C(=O)Nc1ccc(F)cc1`, the cytotoxicity call was “inactive”. `CC(C)N1CC[C@@H](CN(C)Cc2ccc(Cl)cc2)Oc2c(NC(=O)c3ccncc3)cccc2C1=O` was tested, and the cytotoxicity call was “inactive”. For `COc1cccc(S(=O)(=O)N(C)C[C@@H]2Oc3ncc(C#CCC(C)C)cc3C(=O)N([C@H](C)CO)C[C@@H]2C)c1`, the cytotoxicity call was “inactive”. In the case of `C[C@H]1CN([C@@H](C)CO)C(=O)c2cc(Br)cnc2O[C@@H]1CN(C)Cc1cccc(C(=O)O)c1`, the cytotoxicity call is reported as “inactive”. For `C[C@@H]1CN([C@H](C)CO)C(=O)c2cc(NC(=O)Cn3cnnn3)ccc2O[C@@H]1CN(C)Cc1ccccc1`, the cytotoxicity call was “inactive”. For `Cc1noc(C)c1NC(N)=O`, the cytotoxicity call was “inactive”. With `CC(C)NC(=O)Nc1cccc2c1O[C@@H](CN(C)Cc1ccc(C(=O)O)cc1)[C@H](C)CN([C@H](C)CO)C2=O` the cytotoxicity call was “inactive”. With `O=C(C[C@H]1CC[C@H]2[C@@H](COC[C@@H](O)CN2S(=O)(=O)c2ccccc2Cl)O1)NCCc1ccncc1` the cytotoxicity call was “inactive”. For `Cc1noc(C)c1NC(=O)Nc1ccc2c(c1)C(=O)N([C@@H](C)CO)C[C@@H](C)[C@@H](CN(C)S(=O)(=O)c1ccccc1)OCCCC[C@H](C)O2`, the cytotoxicity call was “inactive”. For `C[C@@H]1CCCCO[C@H](CN(C)S(=O)(=O)c2cn(C)cn2)[C@@H](C)CN([C@H](C)CO)C(=O)c2cc(NS(=O)(=O)c3ccccc3)ccc2O1`, the cytotoxicity call was “inactive”. For `C=CCC[C@H](Cc1ccc(F)cc1)C(=O)OC[C@H]1CCCN1C(=O)[C@H](CC=C)CC(=O)N(CCO)Cc1ccccc1`, the cytotoxicity call was “inactive”. With `C[C@@H]1CCCCO[C@@H](CN(C)CC2CCCCC2)[C@@H](C)CN([C@H](C)CO)C(=O)c2cc(N(C)C)ccc2O1` the cytotoxicity call was “inactive”. In the case of `C[C@H]1CN([C@@H](C)CO)C(=O)c2cc(NC(=O)CCN3CCOCC3)ccc2O[C@H]1CN(C)Cc1ccncc1`, the cytotoxicity call is reported as “inactive”. For `C[C@@H]1CCCCO[C@H](CN(C)CC2CC2)[C@@H](C)CN([C@H](C)CO)C(=O)c2cc(NS(=O)(=O)c3cn(C)cn3)ccc2O1`, the cytotoxicity call was “inactive”. `C[C@@H]1CCCCO[C@H](CN(C)S(=O)(=O)c2ccc(Cl)cc2)[C@H](C)CN([C@@H](C)CO)C(=O)c2cc(NS(=O)(=O)c3ccc(Cl)cc3)ccc2O1` was tested, and the cytotoxicity call was “inactive”. For `C[C@@H]1CN([C@H](C)CO)C(=O)c2cc(-c3ccc(C(=O)N(C)C)cc3)cnc2O[C@H]1CN(C)C(=O)CN(C)C`, the cytotoxicity call was “inactive”. In the case of `CCC(=O)N(C)C[C@@H]1Oc2ncc(C#C[C@H](C)O)cc2C(=O)N([C@@H](C)CO)C[C@H]1C`, the cytotoxicity call is reported as “inactive”. In the case of `C[C@@H]1CCCCO[C@H](CN(C)C(=O)Nc2cccc3ccccc23)[C@H](C)CN([C@@H](C)CO)C(=O)c2cc(NC(=O)CCC(F)(F)F)ccc2O1`, the cytotoxicity call is reported as “inactive”. `C[C@@H]1CCCCO[C@H](CN(C)C(=O)Nc2ccc(C(F)(F)F)cc2)[C@@H](C)CN([C@H](C)CO)C(=O)c2cc(NS(C)(=O)=O)ccc2O1` was tested, and the cytotoxicity call was “inactive”. For `COc1ccc(NC(=O)N(C)C[C@@H]2Oc3c(NC(=O)Nc4ccc(C(F)(F)F)cc4)cccc3C(=O)N([C@@H](C)CO)C[C@@H]2C)cc1`, the cytotoxicity call was “inactive”. `COc1ccc(S(=O)(=O)N(C)C[C@@H]2Oc3c(NC(=O)c4cnccn4)cccc3C(=O)N([C@@H](C)CO)C[C@H]2C)cc1` was tested, and the cytotoxicity call was “inactive”. With `CO[C@H]1CN(C)C(=O)c2ccc(NS(=O)(=O)CC(F)(F)F)cc2OC[C@H](C)N(C(=O)NC(C)C)C[C@H]1C` the cytotoxicity call was “inactive”. With `CC(C)NC(=O)Nc1cccc2c1O[C@H](CN(C)C(=O)NC1CCCCC1)[C@H](C)CN([C@@H](C)CO)C2=O` the cytotoxicity call was “inactive”. `C[C@H](CO)N1C[C@H](C)[C@@H](CN(C)Cc2ccc(-c3ccccc3)cc2)Oc2c(NC(=O)Nc3ccc(C(F)(F)F)cc3)cccc2C1=O` was tested, and the cytotoxicity call was “inactive”. With `Cc1noc(C)c1NC(=O)N(C)C[C@@H]1OCCCC[C@H](C)Oc2ccc(NC(=O)Nc3ccc(F)cc3)cc2C(=O)N([C@H](C)CO)C[C@@H]1C` the cytotoxicity call was “inactive”. `C[C@H](CO)N1C[C@H](C)[C@H](CN(C)Cc2ccc(Oc3ccccc3)cc2)Oc2c(NC(=O)c3nc4ccccc4s3)cccc2C1=O` was tested, and the cytotoxicity call was “inactive”. In the case of `COc1ccc(NC(=O)Nc2cccc3c2O[C@@H](CN(C)CC2CCCCC2)[C@@H](C)CN([C@H](C)CO)C3=O)cc1`, the cytotoxicity call is reported as “inactive”. `CC(C(=O)O)c1ccc(N2Cc3ccccc3C2=O)cc1` (centres undefined) was tested, and the cytotoxicity call was “inactive”. For `CC(C)Cc1ccc(/C=C/C=O)cc1`, the cytotoxicity call was “inactive”. In the case of `COC(=O)C1=CO[C@@H](O[C@@H]2O[C@H](CO)[C@@H](O)[C@H](O)[C@H]2O)[C@@H]2[C@@H](C)[C@@H](O)C[C@H]12`, the cytotoxicity call is reported as “inactive”. For `CC(C)(C)[S@@](=O)N1Cc2cc(C(=O)NCc3ccc4c(c3)OCO4)nc(-c3cccc(-c4cccnc4)c3)c2[C@H]1CCO`, the cytotoxicity call was “inactive”. In the case of `Cc1noc(C)c1NC(=O)Nc1cccc2c1O[C@H](CN(C)S(=O)(=O)c1ccccc1)[C@@H](C)CN([C@@H](C)CO)C2=O`, the cytotoxicity call is reported as “inactive”. For `C[C@H](CO)N1C[C@H](C)[C@H](CN(C)C(=O)Nc2ccc3c(c2)OCO3)Oc2ncc(-c3cncnc3)cc2C1=O`, the cytotoxicity call was “inactive”. With `Cc1ccc(S(=O)(=O)Nc2ccc3c(c2)C(=O)N([C@H](C)CO)C[C@H](C)[C@@H](CN(C)S(=O)(=O)c2ccc(Cl)cc2)OCCCC[C@H](C)O3)cc1` the cytotoxicity call was “inactive”. For `C[C@@H]1CN([C@H](C)CO)C(=O)c2cc(NC(=O)C3CC3)ccc2O[C@H]1CN(C)Cc1ccc(C(=O)O)cc1`, the cytotoxicity call was “inactive”. In the case of `C[C@@H]1CCCCO[C@H](CN(C)C(=O)NC2CCCCC2)[C@@H](C)CN([C@@H](C)CO)C(=O)c2cc(NC(=O)CCC(F)(F)F)ccc2O1`, the cytotoxicity call is reported as “inactive”. For `C[C@H]1CN([C@@H](C)CO)C(=O)c2cc(NS(=O)(=O)c3cccs3)ccc2O[C@@H]1CN(C)S(=O)(=O)c1cccs1`, the cytotoxicity call was “inactive”. With `COc1ccc2c3c([nH]c2c1)[C@H](CO)N(C[C@]13CN(C1)S(=O)(=O)c1cn(cn1)C)C(=O)Nc1ccc(cc1)F` the cytotoxicity call was “inactive”.
